Assays:
[1] = test system: glyphosate-resistant Palmer amaranth (Amaranthus palmeri R-22) plants; test: EPSPS promoter tiling: 25-mer ssDNA oligonucleotides hand applied, then 2× WeatherMax; conditions: for herbicidal control of Palmer amaranth, second round of efficacy testing: 12 individual oligonucleotides of sets 8 and 13; for percent control: 16 nmol/plant followed by 2× WMax, Palmer R-22, ten days after treatment, in combination with dsRNA5 (EPSPS) and dsRNATIF1
Excerpt: One non-limiting example of a method for selecting a polynucleotide for use in a composition for topical application to the surface of a parent plant involves the mapping of efficacious oligonucleotide or polynucleotide sequences (or segments of sequences) using a whole-gene (or full-length reference sequence) tiling array approach. The available full-length reference sequence is divided into “tiling sequences” or segments of 25 contiguous nucleotides along the entire length of the available sequence. For convenience, an Excel template was developed to allow convenient generation of sense and anti-sense tiling sequences for any given full-length reference sequence, providing as output a list of sense and anti-sense sequences for submission to oligonucleotide synthesis providers such as IDT (Integrated DNA Technologies, Coralville, Iowa). Oligonucleotides corresponding to each 25-mer tiling sequence (in sense, anti-sense, or both sense and anti-sense orientation) are synthesized for efficacy screening. Oligonucleotides are screened in sets. It is clear to one skilled in the art that the tiling sequences can be of sizes other than 25 nucleotides (such as about 18, 19, 20, 21, 22, 23, or 24 nucleotides, or larger than 25 nucleotides), that these tiling sequences can be designed to be contiguous segments with no overlap or to overlap adjacent segments, and that such tiling sequences can be grouped into sets of any size. For example, sets of five individual oligonucleotides are pooled into a single polynucleotide composition using 20 mM phosphate buffer and 2 percent w/v ammonium sulfate and 1 percent Silwet L-77, and topically applied to plants at a rate known to be efficacious for the plant species of interest (e.g., 4 nanomoles per plant). Those oligonucleotide sets showing better efficacy are then re-screened by testing the individual component oligonucleotides for efficacy.
A specific example of selecting a polynucleotide for use in a composition for topical application to the surface of a parent plant follows. An EPSPS promoter 1302 nucleotide sequence was identified from genomic sequence of Palmer amaranth (Amaranthus palmeri) as having the sequence SEQ ID NO: 3543. A 1152 nucleotide segment of the 1302 nucleotides EPSPS promoter sequence was used in this example.
The 1152-nt EPSPS promoter sequence was “tiled” (i.e., the full-length sequence covered by overlapping shorter sequences) by 25-mer anti-sense (AS) and sense (S) ssDNAs. A total of 96 25-mer ssDNA oligonucleotides were designed and grouped into 16 sets of 6 ssDNA oligonucleotides each (each set covering 150 contiguous nucleotides of the promoter sequence). The oligonucleotides were synthesized by IDT in 96-well plate format. Oligonucleotide sequences are provided in Table 3 (SEQ ID NO: 3588-3779).
Oligonucleotide sets assigned an even number n contain oligonucleotides with a sequence shifted by 12 or 13 nucleotides (nt) relative to the 3′ end of the oligonucleotides in sets assigned a number equal to (n−1). For example, the oligonucleotide sequences in set number 2 have a sequence shifted by 12 or 13 nt relative to the 3′ end of the oligonucleotides in set number 1.
The ssDNA oligonucleotides were formulated as 100 micromolar (per oligonucleotide) mixtures (each consisting of a set of 6 oligonucleotides) in 20 millimolar phosphate buffer (pH 7.0), 2% ammonium sulfate, 1% Silwet® L-77, and were hand applied by pipetting to the surface of four fully expanded source leaves of glyphosate-resistant Palmer amaranth (Amaranthus palmeri R-22) plants. Each leaf received 10 microliters of 100 micromolar ssDNA solution (a total of 1 nanomole per oligonucleotide per leaf for a total 4 nanomole per oligonucleotide per plant). Silwet-containing buffer without oligonucleotides was applied as a negative control. A composition of four EPSPS short dsRNA1, 3, 4 and 5 (see Example 6) were applied at 4 nm each oligonucleotide per plant as positive control. […]

[2] = test system: cotton plants transformed with the CP4 EPSPS gene; test: CP4 EPSPS dsRNA triggers plus RoundUp Ultra on transgenic glyphosate tolerant cotton; conditions: trigger 210, 630, 1890 pmol; RoundUp Ultra 1.5 a.e. lb/acre two-three days later; FIG. 3
Excerpt: In this example, a gene coding sequence for Agrobacterium tumefaciens CP4 EPSPS (SEQ ID NO: 1) was targeted with two dsRNA trigger molecules referred to as CP4-12 (82-462 of SEQ ID NO:1) a 381 polynucleotide, and CP4-34 (594-1043 of SEQ ID NO:1) a 450 polynucleotide. Corn and cotton plants that were transformed with the CP4 EPSPS gene and are resistant to glyphosate were planted in pots in a greenhouse along with negative isolines for each and grown to the first true leaf emergence stage then treated with a trigger solution containing 0.5% Silwet L77, 2% ammonium sulfate, 20 mM Na Phoshpate (pH 6.8) at different rates of trigger amount, 0 picomoles (pmol), 210 pmol, 630 pmol and 1890 pmol. For each replication (8-10 plants), two fully expanded cotyledons were treated by pipette with 50 microliters of trigger solution each, then sprayed two-three days later with 1.5 a.e.lb/acre) of RoundUp™ Ultra (glyphosate, Monsanto, St Louis, Mo.). The cotton and corn plants were scored for stunting and injury 7-16 days after spray treatment. FIGS. 2 and 3 show the corn and cotton plant results, respectively. […] The nontransgenic control is labeled “Minus CP4”, these plant were killed by the RoundUp treatment.

acaacttgaatgaattcgagggact (antisense ACAACTTGAATGAATTCGAGGGACT; DNA, backbone and methylation of C not given here; listed as Amaranthus palmeri) [AS48]
herbicidal control of Palmer amaranth, second round of efficacy testing [1]: better herbicidal control

ttcaattataatcttaaaggtttca (antisense TTCAATTATAATCTTAAAGGTTTCA; DNA, backbone and methylation of C not given here; listed as Amaranthus palmeri) [AS81]
percent control [1]: 98%
herbicidal control of Palmer amaranth, second round of efficacy testing [1]: better herbicidal control

CTCTTTGTTTTTCTTCTGCCAATTT (antisense CTCTTTGTTTTTCTTCTGCCAATTT; DNA, backbone and methylation of C not given here; listed as Amaranthus palmeri) [AS83-DNA-25-wt]
percent control [1]: 99%
herbicidal control of Palmer amaranth, second round of efficacy testing [1]: better herbicidal control

aattttgaccttaaaaatatcaatt (antisense AATTTTGACCTTAAAAATATCAATT; DNA, backbone and methylation of C not given here; listed as Amaranthus palmeri) [AS79]
percent control [1]: 95%
herbicidal control of Palmer amaranth, second round of efficacy testing [1]: better herbicidal control

agaaccaagttataggctgactttc (antisense AGAACCAAGTTATAGGCTGACTTTC; DNA, backbone and methylation of C not given here; listed as Amaranthus palmeri) [AS44]
herbicidal control of Palmer amaranth, second round of efficacy testing [1]: better herbicidal control

B1: CP4-34: dsRNA trigger, 594-1043 of SEQ ID NO:1 (CP4 EPSPS), a 450 polynucleotide (nucleic acid, listed as Agrobacterium tumefaciens)
DNA: CGATCATACGGAAAAGATGCTGCAGGGCTTTGGCGCCAACCTTACCGTCGAGACGGATGCGGACGGCGTGCGCACCATCCGCCTGGAAGGCCGCGGCAAGCTCACCGGCCAAGTCATCGACGTGCCGGGCGACCCGTCCTCGACGGCCTTCCCGCTGGTTGCGGCCCTGCTTGTTCCGGGCTCCGACGTCACCATCCTCAACGTGCTGATGAACCCCACCCGCACCGGCCTCATCCTGACGCTGCAGGAAATGGGCGCCGACATCGAAGTCATCAACCCGCGCCTTGCCGGCGGCGAAGACGTGGCGGACCTGCGCGTTCGCTCCTCCACGCTGAAGGGCGTCACGGTGCCGGAAGACCGCGCGCCTTCGATGATCGACGAATATCCGATTCTCGCTGTCGCCGCCGCCTTCGCGGAAGGGGCGACCGTGATGAACGGTCTGGAAGAACT
modifications: dsRNA form
symptoms observed on the cotton plants [2]: severe stunting and death of the apical meristem

B2: CP4-12: dsRNA trigger, 82-462 of SEQ ID NO:1 (CP4 EPSPS), a 381 polynucleotide (nucleic acid, listed as Agrobacterium tumefaciens)
DNA: ATCTCCCACCGGTCCTTCATGTTCGGCGGTCTCGCGAGCGGTGAAACGCGCATCACCGGCCTTCTGGAAGGCGAGGACGTCATCAATACGGGCAAGGCCATGCAGGCCATGGGCGCCAGGATCCGTAAGGAAGGCGACACCTGGATCATCGATGGCGTCGGCAATGGCGGCCTCCTGGCGCCTGAGGCGCCGCTCGATTTCGGCAATGCCGCCACGGGCTGCCGCCTGACCATGGGCCTCGTCGGGGTCTACGATTTCGACAGCACCTTCATCGGCGACGCCTCGCTCACAAAGCGCCCGATGGGCCGCGTGTTGAACCCGCTGCGCGAAATGGGCGTGCAGGTGAAATCGGAAGACGGTGACCGTCTTCCCGTTACCTTG
modifications: dsRNA form
symptoms observed on the cotton plants [2]: severe stunting and death of the apical meristem

From patent US20130288895A1, “METHODS AND COMPOSITIONS FOR WEED CONTROL” (priority 2011, published 2013)
